# Whole data set: some 33,000 sequences, median “E-score (-0.5 to 0.5)” near -0.035, cut for the highest 2% near 0.35. The list shows a part of the results.
# Molecular target: T1, Pdr3 (UniProt P33200)
# T1 sequence: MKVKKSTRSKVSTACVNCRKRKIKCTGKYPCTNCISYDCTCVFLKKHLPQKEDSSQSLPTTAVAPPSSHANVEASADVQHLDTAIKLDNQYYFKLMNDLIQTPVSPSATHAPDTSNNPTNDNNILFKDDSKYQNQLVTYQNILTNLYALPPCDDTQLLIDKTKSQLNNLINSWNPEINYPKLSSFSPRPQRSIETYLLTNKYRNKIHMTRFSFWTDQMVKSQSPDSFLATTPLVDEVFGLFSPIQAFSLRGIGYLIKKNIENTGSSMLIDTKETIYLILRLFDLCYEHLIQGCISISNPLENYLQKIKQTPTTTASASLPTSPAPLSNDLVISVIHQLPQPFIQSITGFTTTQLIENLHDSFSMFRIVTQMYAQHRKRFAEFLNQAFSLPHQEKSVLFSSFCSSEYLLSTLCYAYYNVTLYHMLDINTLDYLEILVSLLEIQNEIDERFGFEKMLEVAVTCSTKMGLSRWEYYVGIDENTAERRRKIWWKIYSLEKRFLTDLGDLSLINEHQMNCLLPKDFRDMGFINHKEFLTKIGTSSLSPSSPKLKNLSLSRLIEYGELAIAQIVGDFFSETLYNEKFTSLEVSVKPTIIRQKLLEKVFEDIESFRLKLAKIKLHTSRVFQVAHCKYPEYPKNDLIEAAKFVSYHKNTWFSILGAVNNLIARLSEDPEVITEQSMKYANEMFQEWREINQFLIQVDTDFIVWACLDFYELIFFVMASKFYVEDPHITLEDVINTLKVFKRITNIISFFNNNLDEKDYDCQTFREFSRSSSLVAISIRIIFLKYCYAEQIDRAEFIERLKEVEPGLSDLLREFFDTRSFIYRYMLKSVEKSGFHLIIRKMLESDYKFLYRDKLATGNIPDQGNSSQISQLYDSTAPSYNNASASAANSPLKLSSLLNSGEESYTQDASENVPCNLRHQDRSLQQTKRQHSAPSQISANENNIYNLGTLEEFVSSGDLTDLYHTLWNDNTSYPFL
# Test: PBM E-score (8-mer binding enrichment) (E-score (-0.5 to 0.5)); higher = stronger / more preferred TF binding; most listed sequences are background and not binding sites
# Conditions: protein concentration: 200 nM; construct: GST-full length
# Procedure: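 Universal 'all 10-mer' protein binding microarrays (Agilent AMADID 015681) probed with GST-tagged S. cerevisiae TFs (full-length or DBD) made by in vitro transcription/translation (PURExpress), about 100-200 nM. Bound TF was detected with fluorescent anti-GST. Each ungapped 8-mer (which stands for itself and its reverse complement) is scored by the PBM enrichment score (E-score), a modified Wilcoxon-Mann-Whitney statistic from -0.5 to +0.5, computed with the Universal PBM Analysis Suite. Scale: above 0.35 generally sequence-specific binding.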
row,Sequence,PBM E-score
1,TACGCAAA,-0.328
2,ATAGAACG,0.147
3,AGTCGAGA,-0.099
4,GCAAGAGC,-0.12
5,CACATCCG,0.291
6,GAATCCCC,0.14
7,GCCAGTCA,-0.0896
8,ACTCAGTC,-0.196
9,CGATGACG,-0.16
10,CCGATCTC,0.248
11,CGGTACAG,0.0702
12,CGGTTAAG,-0.044
13,AAGGACCT,-0.0617
14,AGTGAATC,-0.0967
15,CTCTCGAC,-0.244
16,GCGATTCA,-0.154
17,AGCTGATC,0.149
18,AGCATAAT,0.0662
19,GCCCTCTA,-0.229
20,AAAACATG,-0.0544
21,CAGTTACA,-0.0561
22,ACGCTCAG,-0.294
23,GCAGGGCA,-0.0439
24,CAACCATC,-0.0344
25,GGTTCGAC,-0.0247

row,Sequence,PBM E-score
1,ACTACGCA,-0.236
2,CAGAGAGC,-0.116
3,AACGGGCC,0.107
4,TGACACAA,0.00452
5,AATGTGTC,0.0699
6,CCATCCCA,-0.0225
7,CGTTCTCA,-0.119
8,CCCTTAGA,-0.37
9,ACAAATTA,0.0754
10,ATGGGTCA,-0.162
11,AGTGCATA,-0.169
12,ATCTCCCC,0.00429
13,ATGGGAGC,0.0452
14,TAGCCATA,-0.312
15,ACGCTAGC,-0.151
16,CAACTGGA,-0.0462
17,AAGAATTG,0.0285
18,GATGCGCC,0.0344
19,GACACACC,0.105
20,TGAGCCAA,-0.304
21,CTATGCAC,-0.271
22,AGAATTAC,0.00038
23,GCTAGAAA,0.00276
24,GAATGTCA,-0.092
25,CTCACACA,0.0581

row,Sequence,PBM E-score
1,CCAGACCA,-0.109
2,AGAGTCCC,-0.133
3,ATGTGCAC,-0.0349
4,AAGCAGCT,-0.0614
5,CTGCTGCC,-0.0922
6,GGTAGACA,-0.00736
7,ATCTCTTA,-0.0707
8,AACCGTGG,-0.0147
9,ACCCAGTA,-0.307
10,CCGCGCGC,0.332
11,AATAGAGA,-0.086
12,GCATAGAA,0.0956
13,CAAGCGAG,0.0544
14,CATCCCCA,-0.0591
15,ACGAACGG,0.286
16,GTGGAGTA,-0.134
17,ACGTCTCG,-0.0164
18,CATTAATA,0.0798
19,GCGATCCA,-0.0136
20,AGACGCCA,-0.123
21,TACCTTCA,-0.146
22,CCAGCCAG,-0.0939
23,AGATATTA,0.053
24,CATGATCA,-0.153
25,TAAGAGTA,-0.166

row,Sequence,PBM E-score
1,CTGCATTA,-0.0513
2,CCAGAGGC,-0.251
3,GGACTGGA,0.122
4,AGGCTATA,-0.194
5,CCGCTTAA,0.0956
6,ACCTGGGG,-0.281
7,CGACGCCC,0.173
8,CATCAGCC,-0.0388
9,GATCAAGA,0.123
10,AACGCGGG,0.332
11,AATGAAAC,0.059
12,CACCGAGG,0.167
13,AAACTCGG,0.218
14,ACCTCCTG,-0.304
15,ACCCTGGG,0.00742
16,TGTCGACA,-0.217
17,AGGTGAAG,-0.118
18,GTACATAA,-0.0417
19,GCCGCCCC,0.14
20,ACTGCAGC,-0.0257
21,ATCGGCAA,0.0933
22,ACCGCCAC,-0.0374
23,AAGGAATT,0.0441
24,AAAGAGTC,-0.0912
25,AAGTGTCT,-0.0964

row,Sequence,PBM E-score
1,ATTTACAG,-0.112
2,ACAGATTC,0.0872
3,GCACCGCA,-0.0228
4,CACGCAGA,-0.0681
5,TATGGGAA,0.0296
6,AAAAACGA,-0.0303
7,ACTACAAC,-0.0248
8,TCTCCGCA,0.168
9,AGCATCCC,0.12
10,CACATGGG,-0.0679
11,AGACCGAT,0.0137
12,GTTGGGGA,-0.0633
13,AGTGGGTA,0.0928
14,CAGGTACC,-0.0708
15,AGTCTGCG,-0.259
16,GAAGCGTC,-0.17
17,GAACGGGC,-0.103
18,CCTCCTCG,-0.207
19,GCGAGACC,-0.0938
20,ACTTGTTC,0.0404
21,GCTGACCA,0.0667
22,GAAGAACC,0.143
23,AATGAATT,0.0733
24,AGCACGAG,0.0609
25,GGTATCAA,-0.0451

row,Sequence,PBM E-score
1,CGAGAACG,0.2
2,AGGGATCC,0.196
3,ATGTCGCG,0.18
4,CCTCCCGC,0.177
5,ACAGGACC,-0.0605
6,CATCCTGC,-0.207
7,GCGATTAC,-0.0135
8,GACCGCGA,0.131
9,CCACTCAC,0.0418
10,CCTTAATA,-0.0631
11,GATGCATA,-0.00963
12,ACTGGTGA,-0.31
13,CCCCCCCA,-0.265
14,CACTCTCC,0.101
15,CAAGATAG,-0.059
16,GGTACAGA,-0.0537
17,CGGAAAAG,0.415
18,AACCAGCA,-0.109
19,CTAGAGCC,-0.261
20,CCACAACC,0.0861
21,AAGAGAGT,-0.226
22,GCGTGAGA,0.00659
23,ATTTTTGC,0.0217
24,AACCTTTC,-0.0762
25,ATTGTCGG,0.193

row,Sequence,PBM E-score
1,ATACTGCG,0.0344
2,AGTCACAA,-0.132
3,CATGGTCC,0.0411
4,CCCGACAC,0.0405
5,CAAGTTGG,-0.0191
6,ATCCCATA,0.0193
7,AAGCGCGG,0.17
8,ATGAGGAA,-0.0143
9,CCAAGCGA,-0.126
10,CATGCGGC,0.0139
11,ATAGCAAA,-0.274
12,GTATGAGA,0.089
13,GCAAGCCC,-0.0061
14,ACGTTGTA,-0.0949
15,GGGACACC,0.0616
16,CAAGTGCC,-0.0721
17,CTCGGGAC,0.293
18,ACTGGGCG,-0.018
19,ACGGTGCA,-0.172
20,TACTGTGA,-0.0404
21,GCTTGAAC,0.16
22,CATCAGAG,-0.0589

# Source: the supplement of paper PMC3334620
